Measured values reported in PubChem BioAssay (Tox21).
This list was built around the results that the source calls inconclusive (neither active nor inactive); the mix of calls is not that of the screen. For some assays here: Potencies of inconclusive entries are doubtful fits and often do not repeat. Activity calls are given as the source filed them. Unless noted, calls follow the shape of the dose curve; as a rule, active = well fitted curve in the direction sought with a large enough effect in the repeat runs; inconclusive = weak or mixed curves; inactive = no such curve, though single readings can be large; an effect the other way counts as inactive or inconclusive.

Legend:
[1] = qHTS assay to identify small molecule antagonists of the estrogen related receptor (ERR) signaling pathway from Tox21 library - cell viability counter screen (AID 1224834); settings: ERR reporter cells viability, CellTiter-Fluor, 17.5 h; series mostly up to 92.4 µM; also: potency is read from the fitted curve at half-maximal effect; nearly all actives have a fitted effect of over 30% in size
Summary of the method: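 Counter screen run in ERR cells (2,000 cells/well): cells pre-incubated 6 h, then treated with compounds for 17.5 h at 37 C. Fluorescence was read 30 min after CellTiter-Fluor addition.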

[2] = qHTS assay to identify small molecule antagonists of the constitutive androstane receptor (CAR) signaling pathway - cell viability counter screen (AID 1224837); settings: HepG2-CYP2B6-hCAR viability, CellTiter-Fluor, 23 h, co-treated with 50 nM CITCO; series mostly up to 92.4 µM; also: potency is read from the fitted curve at half-maximal effect; nearly all actives have a fitted effect of over 45% in size
Summary of the method: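 CITCO at 50 nM final was added alongside compounds (15 concentrations) to double-stable hCAR/CYP2B6-2.2kb HepG2 cells. Following 23 hr at 37 C, cell viability was quantified by CellTiter-Fluor fluorescence intensity.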

[3] = biological target: Thyrotropin receptor (Homo sapiens) (UniProt P16473); assay: qHTS assay to identify small molecule agonists of the thyroid stimulating hormone receptor (TSHR) signaling pathway (AID 1224843; calls by dose curve; also: nearly all actives have a fitted effect of over 45% in size; also: potency is read from the fitted curve at half-maximal effect; as to activation: % is scaled to controls: 0 for no effect and ±100 for the full control effect); settings: TSHR-HEK293 cells, cAMP HTRF, agonist mode, 30 min; activation: at 92.4 µM (top of the series) unless noted
Chain of UniProt P16473 (P16473 whole entry, looked up): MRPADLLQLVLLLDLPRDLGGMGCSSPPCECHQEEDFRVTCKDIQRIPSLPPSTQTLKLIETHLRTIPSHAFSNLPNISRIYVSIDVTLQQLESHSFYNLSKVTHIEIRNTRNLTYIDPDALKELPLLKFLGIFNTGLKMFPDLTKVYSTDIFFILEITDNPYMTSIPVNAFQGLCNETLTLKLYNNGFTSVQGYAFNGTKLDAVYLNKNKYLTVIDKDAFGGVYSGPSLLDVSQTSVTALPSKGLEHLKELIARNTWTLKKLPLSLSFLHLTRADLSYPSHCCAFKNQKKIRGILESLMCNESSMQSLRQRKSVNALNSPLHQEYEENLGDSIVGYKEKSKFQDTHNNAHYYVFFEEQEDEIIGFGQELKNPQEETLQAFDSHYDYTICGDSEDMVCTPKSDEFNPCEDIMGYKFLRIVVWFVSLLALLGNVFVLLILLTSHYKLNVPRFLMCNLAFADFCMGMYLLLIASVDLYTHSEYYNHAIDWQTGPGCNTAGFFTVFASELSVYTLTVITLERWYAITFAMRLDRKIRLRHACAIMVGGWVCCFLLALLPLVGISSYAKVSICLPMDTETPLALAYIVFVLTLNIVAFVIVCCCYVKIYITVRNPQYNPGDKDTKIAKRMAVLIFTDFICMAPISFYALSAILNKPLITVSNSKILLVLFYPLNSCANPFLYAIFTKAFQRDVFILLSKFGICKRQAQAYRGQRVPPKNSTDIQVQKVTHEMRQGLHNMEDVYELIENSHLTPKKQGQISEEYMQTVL
Summary of the method: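 HEK293/TSHR, 800 cells/well; cpd 30 min RT; add cAMP-d2 + anti-cAMP-cryptate, 1 h RT; fluorescence read on plate reader. 15-pt titration, n=3.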

[4] = biological target: Nuclear receptor subfamily 1 group I member 3 (Homo sapiens) (UniProt Q14994); assay: qHTS assay to identify small molecule antagonists of the constitutive androstane receptor (CAR) signaling pathway (AID 1224838); settings: HepG2-CYP2B6-hCAR luciferase, CITCO-stimulated, 24 h; series mostly up to 92.4 µM; also: potency is read from the fitted curve at half-maximal effect; nearly all actives have a fitted effect of over 40% in size
Chain of UniProt Q14994 (Q14994 whole entry, looked up): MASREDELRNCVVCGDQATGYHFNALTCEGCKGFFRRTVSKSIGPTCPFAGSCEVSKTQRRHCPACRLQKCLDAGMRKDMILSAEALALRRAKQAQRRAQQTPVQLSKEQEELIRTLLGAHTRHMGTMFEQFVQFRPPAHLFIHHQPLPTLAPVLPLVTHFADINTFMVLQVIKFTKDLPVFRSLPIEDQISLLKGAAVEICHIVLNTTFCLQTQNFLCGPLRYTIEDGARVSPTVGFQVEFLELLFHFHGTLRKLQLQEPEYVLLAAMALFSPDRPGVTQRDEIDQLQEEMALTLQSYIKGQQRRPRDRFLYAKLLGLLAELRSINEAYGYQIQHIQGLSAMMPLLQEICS
Summary of the method: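 Inhibition of CITCO-driven (50 nM final) CYP2B6 reporter expression is measured in HepG2 cells stably carrying hCAR. Fifteen compound concentrations are applied for 24 h at 37 C, followed by luciferase luminescence.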

[5] = qHTS assay to identify small molecule agonists of the estrogen related receptor signaling pathway with the pleiotropic PPARgamma coactivator (PGC) from Tox21 10K library (AID 1224842); settings: PGC/ERR reporter cell line, luciferase ONE-Glo, 18 h; series mostly up to 92.4 µM; also: potency is read from the fitted curve at half-maximal effect; nearly all actives have a fitted effect of over 15% in size
Summary of the method: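 PGC/ERR reporter cell line, 2,000 cells per well, incubated 6 h at 37 C before 23 nL compound in DMSO was added. After 18 h at 37 C, One-Glo luminescence read following 30 min at room temperature.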

[6] = qHTS assay to identify small molecule agonists of the hypoxia (HIF-1) signaling pathway - cell viability counter screen (AID 1224844; calls by dose curve; also: potency is read from the fitted curve at half-maximal effect; nearly all actives have a fitted effect of over 50% in size); settings: HRE-bla ME-180 viability, CellTiter-Glo luminescence, 17 h; series mostly up to 76.8 µM
Summary of the method: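 In this counter screen, HRE-bla ME-180 cell viability after 17 hrs of compound exposure at 37C was read by CellTiter-Glo luminescence, multiplexed with the beta-lactamase reporter measurement.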

[7] = biological target: Nuclear receptor subfamily 1 group I member 3 (Homo sapiens) (UniProt Q14994); assay: qHTS assay to identify small molecule agonists of the constitutive androstane receptor (CAR) signaling pathway (AID 1224839); settings: HepG2 hCAR CYP2B6-luciferase, agonist mode, 24 h; series mostly up to 92.4 µM; also: potency is read from the fitted curve at half-maximal effect; nearly all actives have a fitted effect of over 15% in size
Summary of the method: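 Luminescence read-out (ONE-Glo, 30 min, room temperature) from double-stable HepG2-CYP2B6-hCAR cells exposed 24 h to 15-point compound series in presence of 0.75 uM PK11195 final.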

[8] = qHTS assay to identify small molecule agonists of H2AX - cell viability counter screen (AID 1224847; calls by dose curve;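 also: wild-type CHO-K1 cells; top concentration of the series differs between compounds; % is scaled to controls: 0 for no effect and ±100 for the full control effect; nearly all actives have a fitted effect of over 30% in size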); settings: CHO-K1 viability, CellTiter-Glo luminescence, 3 h; series mostly up to 154 µM
Summary of the method: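 CHO-K1 wt, 1000 cells/well, o/n 37C; cpds 15 conc, 3 h 37C, 0.76% DMSO; CellTiter-Glo, 30 min RT, luminescence.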

[9] = qHTS assay to identify small molecule antagonists of the estrogen related receptor signaling pathway with the pleiotropic PPARgamma coactivator (PGC) from Tox21 10K library - cell viability counter screen (AID 1224840; active = well fitted cell-killing curve with a large enough effect in the repeat runs, not every such curve was filed as active; inconclusive = weak or mixed curves, or effect the other way; inactive = no such curve, though single readings can be large or run the other way; also: potency is read from the fitted curve at half-maximal effect; nearly all actives have a fitted effect of over 40% in size); settings: PGC/ERR reporter cells viability, CellTiter-Fluor, 17.5 h; series mostly up to 92.4 µM
Summary of the method: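 Readout: fluorescence intensity from CellTiter-Fluor after 30 min at 37 C/5% CO2. Preceded by 17.5 h treatment of PGC/ERR cells with DMSO-dissolved compounds, added 6 h post-seeding.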

[10] = qHTS assay to identify small molecule antagonists of the estrogen related receptor signaling pathway with the pleiotropic PPARgamma coactivator (PGC) from Tox21 10K library (AID 1224841; call rule not given here; also: % is scaled to controls: 0 for no effect and ±100 for the full control effect; actives are mostly falling curves and most rising ones were filed inactive; nearly all actives have a fitted effect of over 50% in size); settings: PGC/ERR reporter cell line, ONE-Glo luciferase, 18 h; series mostly up to 92.4 µM
Summary of the method: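 One-Glo luminescence, measured after half an hour at room temperature, quantified reporter output of PGC/ERR cells. These had been plated at 2,000 per well, incubated 6 h, dosed with compounds in DMSO, then kept 18 h at 37 C.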

[11] = qHTS assay to identify small molecule agonists of the hypoxia (HIF-1) signaling pathway (AID 1224846; active = well fitted activation curve with a large enough effect in the signal ratio in the repeat runs, not every such curve was filed as active; inconclusive = weak or mixed curves; the % refers to the signal ratio; also: potency is read from the fitted curve at half-maximal effect); settings: HRE-bla ME-180 cells, beta-lactamase ratio, 17 h; activation: at 76.8 µM (top of the series) unless noted
Summary of the method: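 ME-180 HRE-bla reporter cells; compounds in DMSO, 17 h at 37C; read-out beta-lactamase via CCF4-AM FRET.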

[12] = qHTS assay to identify small molecule antagonists of the estrogen related receptor (ERR) signaling pathway from Tox21 library (AID 1224848); settings: ERR reporter cell line, luciferase antagonist mode, 18 h; series mostly up to 92.4 µM; also: % is scaled to controls: 0 for no effect and ±100 for the full control effect; nearly all actives have a fitted effect of over 50% in size
Summary of the method: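 Compounds dissolved in DMSO are pin-transferred onto ERR reporter cells (2,000 per well) that have settled for 6 h at 37 C. Plates then incubate 18 h at 37 C before ONE-Glo luciferase reagent and a luminescence read 30 min later.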

[13] = qHTS assay to identify small molecule agonists of the estrogen related receptor (ERR) signaling pathway from Tox21 library (AID 1224849; calls by dose curve; also: % is scaled to controls: 0 for no effect and ±100 for the full control effect; nearly all actives have a fitted effect of over 15% in size); settings: ERR reporter cell line, ONE-Glo luciferase, 18 h; at 92.4 µM (top of the series)
Summary of the method: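 Luciferase activity in ERR pathway reporter cells served as the agonist readout; exposure lasted 18 h at 37 C, with ONE-Glo detection after 30 min at room temperature.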

[14] = qHTS RealTime-Glo MT Cell Viability Assay in HEK293 cells - 32 hour (AID 1224868); settings: RealTime-Glo luminescence; series mostly up to 76.8 µM; also: potency is read from the fitted curve at half-maximal effect; nearly all actives have a fitted effect of over 50% in size
Summary of the method: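 HEK293 cells seeded with NanoLuc/prosubstrate reagent, rested 5 h at 37 C, then dosed and kept at 37 C up to 40 h. Nonlytic real-time luminescence from viable cells read at 0, 8, 16, 24, 32 and 40 h.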
Tags tell the direction and shape of the fitted curve or compound fluorescence and quenching.

## NC(N)=N/N=C/c1c(Cl)cccc1Cl
[1]
  Potency: inconclusive: 26.6 µM [cytotoxic, partial curve]
[2]
  Potency: active: 23.7 µM
[3]
  activation: inconclusive: 21.5% [at 42.5 µM]

## CCN(CC)CCNC(C(=O)OCCC(C)C)c1ccccc1 (stereo not drawn)
[1]
  Potency: inconclusive: 33.5 µM [cytotoxic, partial curve, poor fit]
[4]
  Potency: inconclusive: 26.6 µM [inhibitor, single point]
[5]
  Potency: inconclusive: 13.3 µM [activator, single point]
[6]
  Potency: inconclusive: 26.8 µM [cytotoxic, single point]

## COc1cc2c(cc1OC)-c1cc(=Nc3c(C)cc(C)cc3C)n(C)c(=O)n1CC2
[1]
  Potency: inconclusive: 33.5 µM [cytotoxic]
[7]
  Potency: inconclusive: 26.6 µM [activator, partial curve]
[3]
  Potency: inconclusive: 0.0033 µM [activator, full curve]
[8]
  Potency: inactive

## CCCCCOC(=O)c1ccc(O)cc1
[1]
  Potency: inconclusive: 69.4 µM [cytotoxic, partial curve]
[7]
  Potency: active: 55.1 µM
[9]
  Potency: inconclusive: 69.4 µM [cytotoxic]
[10]
  Potency: inactive
[6]
  Potency: inconclusive: 62.4 µM [cytotoxic, partial curve, poor fit]
[11]
  Potency: inconclusive: 44.2 µM [falling, partial curve]
[12]
  Potency: inactive
[13]
  activity change, positive = activation: active: 37.7%

## C#CC(C)N(C)C(=O)Nc1ccc(Cl)cc1 (stereo not drawn)
[1]
  Potency: inconclusive: 61.1 µM [cytotoxic, single point]
[7]
  Potency: inconclusive: 21.7 µM [activator, partial curve]
[11]
  Potency: inconclusive: 54.9 µM [activator, single point]
[14]
  Potency: inconclusive: 43.6 µM [cytotoxic, partial curve]
